# The list shows a part of the results.
# Target: T1, MBP-FoxP1dN (Mus musculus, UniProt P58462 326-579)
# T1 sequence: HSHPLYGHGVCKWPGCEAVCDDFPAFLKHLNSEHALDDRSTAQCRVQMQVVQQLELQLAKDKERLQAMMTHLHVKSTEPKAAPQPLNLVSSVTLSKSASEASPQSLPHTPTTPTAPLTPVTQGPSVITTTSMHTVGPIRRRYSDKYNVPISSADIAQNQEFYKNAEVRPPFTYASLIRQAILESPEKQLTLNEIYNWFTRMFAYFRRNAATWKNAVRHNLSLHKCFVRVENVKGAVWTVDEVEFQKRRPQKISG
# Test: PD-seq (MBP pull-down with sequencing); 20 mM Tris-HCl pH 7.5, 100 mM NaCl, 1.5 mM MgCl2, 0.4 uM protein, 0.1 uM dsDNA library, 30 min, room temperature, amylose pull-down; high values mean tight binding
# Conditions: protein: recombinant; tags: His6-MBP; chain copies: 2; dsDNA, one strand shown
# Outline: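 Amylose resin was used to capture complexes formed during 30 min at room temperature in Tris pH 7.5 buffer with NaCl and MgCl2 between 0.4 µM His6-MBP-tagged mouse FoxP3 or FoxP1 fragment lacking the N-terminus, expressed in E. coli, and 0.1 µM Klenow-filled double-stranded degenerate DNA library. After three washes, the DNA was released with proteinase K, barcoded by PCR and sequenced on Illumina. Binding is pooled-replicate reads-per-million enrichment, pull-down over input.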
row,Sequence,binding signal
1,GATGATTGTTCTCCCAGCTGATGAATTCTAGGAGTCGAGTAAACAAATTTTCCTAATCTTTCTGTTCAAGCGCCATCTAC,0.797 RPM ratio (pull-down/input)
2,GATGATTGTTCTCCCAGCTGATGAATTTATCCACTCGAGTAAACAAATTTTCCTAATCTTTCTGTTCAAGCGCCATCTAC,1.11 RPM ratio (pull-down/input)
3,GATGATTGTTCTCCCAGCTGATGAATTTCGAGCCTCGAGTAAACAAATTTTCCTAATCTTTCTGTTCAAGCGCCATCTAC,0.836 RPM ratio (pull-down/input)
4,GATGATTGTTCTCCCAGCTGATGAATTCCAGCTTTCGAGTAAACAAATTTTCCTAATCTTTCTGTTCAAGCGCCATCTAC,0.886 RPM ratio (pull-down/input)
5,GATGATTGTTCTCCCAGCTGATGAATTGAAGTACTCGAGTAAACAAATTTTCCTAATCTTTCTGTTCAAGCGCCATCTAC,0.796 RPM ratio (pull-down/input)
6,GATGATTGTTCTCCCAGCTGATGAATTGGCCAAATCGAGTAAACAAATTTTCCTAATCTTTCTGTTCAAGCGCCATCTAC,0.996 RPM ratio (pull-down/input)
7,GATGATTGTTCTCCCAGCTGATGAATTGGACATTTCGAGTAAACAAATTTTCCTAATCTTTCTGTTCAAGCGCCATCTAC,0.914 RPM ratio (pull-down/input)
8,GATGATTGTTCTCCCAGCTGATGAATTGGGACCATCGAGTAAACAAATTTTCCTAATCTTTCTGTTCAAGCGCCATCTAC,0.875 RPM ratio (pull-down/input)
9,GATGATTGTTCTCCCAGCTGATGAATTCGTGTCGTCGAGTAAACAAATTTTCCTAATCTTTCTGTTCAAGCGCCATCTAC,0.983 RPM ratio (pull-down/input)
10,GATGATTGTTCTCCCAGCTGATGAATTTTCTCGGTCGAGTAAACAAATTTTCCTAATCTTTCTGTTCAAGCGCCATCTAC,0.829 RPM ratio (pull-down/input)
11,GATGATTGTTCTCCCAGCTGATGAATTATACCATTCGAGTAAACAAATTTTCCTAATCTTTCTGTTCAAGCGCCATCTAC,0.975 RPM ratio (pull-down/input)
12,GATGATTGTTCTCCCAGCTGATGAATTTATCGTTTCGAGTAAACAAATTTTCCTAATCTTTCTGTTCAAGCGCCATCTAC,1.08 RPM ratio (pull-down/input)
13,GATGATTGTTCTCCCAGCTGATGAATTCACAAACTCGAGTAAACAAATTTTCCTAATCTTTCTGTTCAAGCGCCATCTAC,1.06 RPM ratio (pull-down/input)
14,GATGATTGTTCTCCCAGCTGATGAATTAGAAAACTCGAGTAAACAAATTTTCCTAATCTTTCTGTTCAAGCGCCATCTAC,0.959 RPM ratio (pull-down/input)
15,GATGATTGTTCTCCCAGCTGATGAATTTGAAGTCTCGAGTAAACAAATTTTCCTAATCTTTCTGTTCAAGCGCCATCTAC,0.792 RPM ratio (pull-down/input)
16,GATGATTGTTCTCCCAGCTGATGAATTCGGTTCTTCGAGTAAACAAATTTTCCTAATCTTTCTGTTCAAGCGCCATCTAC,0.845 RPM ratio (pull-down/input)

row,Sequence,binding signal
1,GATGATTGTTCTCCCAGCTGATGAATTGAGAAGCTCGAGTAAACAAATTTTCCTAATCTTTCTGTTCAAGCGCCATCTAC,0.789 RPM ratio (pull-down/input)
2,GATGATTGTTCTCCCAGCTGATGAATTACTGTGGTCGAGTAAACAAATTTTCCTAATCTTTCTGTTCAAGCGCCATCTAC,1.06 RPM ratio (pull-down/input)
3,GATGATTGTTCTCCCAGCTGATGAATTCAACCGCTCGAGTAAACAAATTTTCCTAATCTTTCTGTTCAAGCGCCATCTAC,0.796 RPM ratio (pull-down/input)
4,GATGATTGTTCTCCCAGCTGATGAATTGTGTATCTCGAGTAAACAAATTTTCCTAATCTTTCTGTTCAAGCGCCATCTAC,1.67 RPM ratio (pull-down/input)
5,GATGATTGTTCTCCCAGCTGATGAATTCGTACCGTCGAGTAAACAAATTTTCCTAATCTTTCTGTTCAAGCGCCATCTAC,0.876 RPM ratio (pull-down/input)
6,GATGATTGTTCTCCCAGCTGATGAATTTTGCCCGTCGAGTAAACAAATTTTCCTAATCTTTCTGTTCAAGCGCCATCTAC,0.777 RPM ratio (pull-down/input)
7,GATGATTGTTCTCCCAGCTGATGAATTCAGAAACTCGAGTAAACAAATTTTCCTAATCTTTCTGTTCAAGCGCCATCTAC,0.844 RPM ratio (pull-down/input)
8,GATGATTGTTCTCCCAGCTGATGAATTATACATGTCGAGTAAACAAATTTTCCTAATCTTTCTGTTCAAGCGCCATCTAC,1.12 RPM ratio (pull-down/input)
9,GATGATTGTTCTCCCAGCTGATGAATTGGACCATTCGAGTAAACAAATTTTCCTAATCTTTCTGTTCAAGCGCCATCTAC,0.919 RPM ratio (pull-down/input)
10,GATGATTGTTCTCCCAGCTGATGAATTTAGGCCCTCGAGTAAACAAATTTTCCTAATCTTTCTGTTCAAGCGCCATCTAC,0.874 RPM ratio (pull-down/input)
11,GATGATTGTTCTCCCAGCTGATGAATTCTTAGTCTCGAGTAAACAAATTTTCCTAATCTTTCTGTTCAAGCGCCATCTAC,0.852 RPM ratio (pull-down/input)
12,GATGATTGTTCTCCCAGCTGATGAATTCCCGGAATCGAGTAAACAAATTTTCCTAATCTTTCTGTTCAAGCGCCATCTAC,0.901 RPM ratio (pull-down/input)
13,GATGATTGTTCTCCCAGCTGATGAATTGAGTAACTCGAGTAAACAAATTTTCCTAATCTTTCTGTTCAAGCGCCATCTAC,0.883 RPM ratio (pull-down/input)
14,GATGATTGTTCTCCCAGCTGATGAATTGTGCATTTCGAGTAAACAAATTTTCCTAATCTTTCTGTTCAAGCGCCATCTAC,1.4 RPM ratio (pull-down/input)
15,GATGATTGTTCTCCCAGCTGATGAATTGTGTTCATCGAGTAAACAAATTTTCCTAATCTTTCTGTTCAAGCGCCATCTAC,1.29 RPM ratio (pull-down/input)

# From paper PMC12820563, “FoxP3 forms a head-to-head dimer in vivo and stabilizes its multimerization on adjacent microsatellites”
